Results as given in PubChem BioAssay AID1345083 (National Center for Advancing Translational Sciences (NCATS), 2018).
The campaign covered roughly 94,000 compounds. About 6,200 (6.6%) were called active. Inconclusive results, whose numbers are uncertain, are shown with a selection of clear calls. Calls follow the shape of the dose curve; as a rule, active = well fitted inhibition curve with a large enough effect; inconclusive = small, poorly fitted or top-dose-only effect; inactive = flat fitted curve, though single readings scatter. A potency beside an inconclusive call is a rough fit, not a confirmed value.

assay: Cytotoxic Profiling in HEK 293 Cell Line of Diverse Libraries Using Quantitative High-Throughput Screening; conditions: HEK 293 viability, ATP luminescence (CellTiter-Glo), 48-72 h; series mostly up to 115 µM; also: nearly all actives have a fitted effect of over 60% in size
Outline: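 Read-out: CellTiter-Glo ATP luminescence. Cells: HEK 293, 250 cells/well. Exposure: 48 or 72 hr, 37 degree Celsius.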
Potency is read from the fitted curve at half-maximal effect; tags tell the direction and shape of the fitted curve.

Q: Which Potency does the source give for Cc1ccc(CNC(=O)c2ccc3c(c2)CN(Cc2ccc(O)c(F)c2)CCO3)cc1 here?
A: The Potency was inconclusive: 56.2 µM [inhibitor, partial curve, poor fit].

Q: With COCCN1CCCC[C@]2(C[C@H](C(=O)O)[C@H](c3ccco3)N2C(=O)c2ccccc2)C1=O as the molecule, how does the Potency read?
A: The Potency was “inactive”.

Q: With CNC(=O)[C@@H]1C[C@H](Oc2ccccc2)CN1C(=O)CCc1c[nH]c2ccccc12 as the molecule, how does the Potency read?
A: Its Potency is “inactive”.

Q: For c1ccc(OCC2CN(Cc3ccc4[nH]ccc4c3)CC23CN(c2ccccc2)C3)cc1 (stereo not drawn), which Potency is on record?
A: Its Potency is active: 28.2 µM.

Q: With N#Cc1cccc(C(=O)N2CCCC(n3cc(-c4nc(C5CC5)no4)nn3)C2)c1 (stereo not drawn) as the molecule, how does the Potency read?
A: The Potency was inconclusive: 89.1 µM [inhibitor, single point].

Q: Which Potency does the source give for O=C(Cc1ccc(F)cc1)NCCn1ccn2nc(-c3ccc(F)cc3)cc2c1=O here?
A: The Potency was inconclusive: 56.2 µM [inhibitor, partial curve, poor fit].

Q: For COc1ccc(NC(=O)C2CCc3nnc(C4CCN([S+](C)(=O)[O-])CC4)n32)cc1 (stereo not drawn), which Potency is on record?
A: The Potency was “inactive”.

Q: For Clc1cc(N2CCC(N3CCOCC3)CC2)n2nccc2n1, which Potency is on record?
A: Its Potency is “inactive”.

Q: For Cn1ncc2c(C(=O)N3CCCCC3)cc(-c3ccc(Cl)cc3Cl)nc21, which Potency is on record?
A: Its Potency is inconclusive: 56.2 µM [inhibitor, partial curve, poor fit].

Q: Which Potency does the source give for O=C(c1cc[nH]c1C1CCCNC1)N(Cc1ccc(F)cc1)Cc1cccnc1 (stereo not drawn) here?
A: The Potency was inconclusive: 50.1 µM [inhibitor, partial curve, poor fit].

Q: For Cc1cc(Cl)ccc1NC(=O)CCn1ccn2nc3c(c2c1=O)CCCC3, which Potency is on record?
A: Its Potency is inconclusive: 79.4 µM [inhibitor, partial curve].

Q: With N#Cc1ccccc1S(=O)(=O)N[C@H]1CO[C@H]2[C@@H]1OC[C@@H]2n1nnnc1Oc1cccc(N2CCOCC2)c1 as the molecule, how does the Potency read?
A: The Potency was inconclusive: 35.5 µM [inhibitor, partial curve, poor fit].

Q: Which Potency does the source give for CCOC(=O)C1(C/C=C/c2ccccc2)CCCN(C(=O)C2CCOCC2)C1 (stereo not drawn) here?
A: The Potency was active: 89.1 µM.

Q: Which Potency does the source give for CNC(=O)CCn1ncc2cc(OCc3ccccc3-c3ccc(F)cc3)ccc21 here?
A: Its Potency is active: 70.8 µM.

Q: For CCc1ccccc1NC(=O)Cn1ccn2nc3c(c2c1=O)CCCC3, which Potency is on record?
A: The Potency was inconclusive: 89.1 µM [inhibitor, partial curve, poor fit].

Q: Which Potency does the source give for CN(Cc1ccccc1)C(=O)[C@H]1O[C@H](CCN2CCN(c3ccc(F)cc3)CC2)CC[C@@H]1O here?
A: Its Potency is inconclusive: 100 µM [inhibitor, single point].

Q: Which Potency does the source give for O=C(Nc1ccc(-c2nnc3n2CCCC3)cc1)c1cccc(Cl)c1 here?
A: Its Potency is inconclusive: 44.7 µM [inhibitor, partial curve, poor fit].

Q: Which Potency does the source give for CCOc1cc2c(cn1)NCCN(Cc1ccncc1Cl)C2 here?
A: The Potency was inconclusive: 44.7 µM [inhibitor, partial curve, poor fit].

Q: Which Potency does the source give for O=C(CN1C(=O)NC2(CCS(=O)(=O)CC2)C1=O)Nc1ccc(F)c(Cl)c1 here?
A: Its Potency is “inactive”.

Q: With Cc1cccc(C(=O)N2CCCN(C)c3ccccc32)c1 as the molecule, how does the Potency read?
A: Its Potency is inconclusive: 89.1 µM [inhibitor, partial curve, poor fit].

Q: For O=C(c1ccc(-c2cccs2)cc1)N1CCC(C(=O)N2CCCC2)CC1, which Potency is on record?
A: Its Potency is inconclusive: 50.1 µM [inhibitor, partial curve, poor fit].

Q: Which Potency does the source give for CCc1nc2c(c(-c3ccc(Cl)cc3)n1)CCN(CCC(C)C)CC2 here?
A: Its Potency is inconclusive: 63.1 µM [inhibitor, partial curve, poor fit].

Q: With COc1ccc(-c2noc(-c3cccn3CC(=O)Nc3cc(C)c(Cl)cc3OC)n2)cc1F as the molecule, how does the Potency read?
A: The Potency was “inactive”.

Q: With CN(Cc1ccccc1)C1CCCc2ccccc21 (stereo not drawn) as the molecule, how does the Potency read?
A: Its Potency is “inactive”.

Q: Which Potency does the source give for N#Cc1ccc(NC(=S)N[C@H]2CO[C@H]3[C@@H]2OC[C@H]3OC(=O)Nc2ccccc2)cc1 here?
A: Its Potency is active: 35.5 µM.

Q: Which Potency does the source give for CCc1nc(CC)n2ccn(Cc3cccc(C#N)c3)c(=O)c12 here?
A: Its Potency is inconclusive: 20 µM [inhibitor, full curve, poor fit].

Q: Which Potency does the source give for COc1ccc(Nc2ccnc(N3CCC(NC(=O)c4ccccc4)CC3)n2)cc1 here?
A: The Potency was active: 35.5 µM.

Q: With O=C1CCN(C2CCOCC2)CCOCCN1 as the molecule, how does the Potency read?
A: Its Potency is “inactive”.

Q: Which Potency does the source give for O=C(C1CCCC1)N1CCN(c2nc3ncccc3o2)CC1 here?
A: The Potency was “inactive”.

Q: Which Potency does the source give for CCn1nnc(-c2cccc(NS(=O)(=O)NCc3ccccc3)c2)n1 here?
A: Its Potency is inconclusive: 89.1 µM [inhibitor, partial curve, poor fit].

Q: With CCCCCC(=O)N1[C@@H](c2ccco2)[C@@H](C(=O)NC)C[C@]12CCCCN(CCOC)C2=O as the molecule, how does the Potency read?
A: Its Potency is “inactive”.

Q: For CN(Cc1cccc(C(F)(F)F)c1)C(=O)C1(c2ccc(Cl)cc2)CCOCC1, which Potency is on record?
A: Its Potency is inconclusive: 44.7 µM [inhibitor, partial curve, poor fit].

Q: With CN(C)C[C@@H]1CN(C2CCOCC2)C[C@H]1NC(=O)c1ccc2cc[nH]c2c1 as the molecule, how does the Potency read?
A: The Potency was inconclusive: 35.5 µM [inhibitor, partial curve].

Q: With OC[C@@H]1CN(Cc2ccc(F)cc2)C[C@H]1c1nc(-c2ccncc2)no1 as the molecule, how does the Potency read?
A: The Potency was inconclusive: 39.8 µM [inhibitor, partial curve, poor fit].

Q: With COc1ccccc1CNC(=O)c1nnn2cc(C)[nH]c(=O)c12 as the molecule, how does the Potency read?
A: The Potency was “inactive”.

Q: For CCC(c1cccs1)N1C(=O)[C@H]2CN(S(=O)(=O)c3cccc(F)c3)C[C@H]2C1=O (stereo partly drawn), which Potency is on record?
A: The Potency was “inactive”.

Q: Which Potency does the source give for O=C(NCc1ccccc1)c1ccc2nnc(-c3ccc(OC(F)(F)F)cc3)n2c1 here?
A: Its Potency is inconclusive: 50.1 µM [inhibitor, partial curve, poor fit].

Q: For FC(F)(F)SCCn1ccnc1-c1cc2n(n1)CCCNC2, which Potency is on record?
A: The Potency was “inactive”.

Q: Which Potency does the source give for CCOC(=O)C1=CN(CC(=O)Nc2cc(C)ccc2OC)S(=O)(=O)N=C1C here?
A: The Potency was “inactive”.

Q: For O=C(NCc1ccc(F)cc1)c1ccc2nnc(Cc3ccc(Cl)cc3)n2c1, which Potency is on record?
A: The Potency was active: 39.8 µM.

Q: Which Potency does the source give for Cc1nn2c(c1-c1ccccc1[S+](C)(=O)[O-])N(CCCc1ccccc1)CCC2 here?
A: Its Potency is inconclusive: 17.8 µM [inhibitor, full curve, poor fit].

Q: For CC(=O)NC1CC2(CCN(C(=O)CCCNC(=O)OC(C)(C)C)CC2)Oc2ccccc21 (stereo not drawn), which Potency is on record?
A: Its Potency is “inactive”.

Q: With Fc1ccc(Nc2cnc3ccc(N4CCOCC4)nn23)cc1F as the molecule, how does the Potency read?
A: Its Potency is inconclusive: 89.1 µM [inhibitor, partial curve, poor fit].

Q: Which Potency does the source give for O=C(NCCC1CCN(Cc2ccccc2)CC1)C1CCN(c2cnn(Cc3ccccc3)c(=O)c2)C1 (stereo not drawn) here?
A: Its Potency is inconclusive: 8.91 µM [inhibitor, full curve, poor fit].

Q: Which Potency does the source give for COc1cccc(-c2nnnn2[C@H]2CO[C@H]3[C@@H]2OC[C@@H]3NC(=S)Nc2ccc(F)cc2)c1 here?
A: The Potency was inconclusive: 56.2 µM [inhibitor, partial curve, poor fit].

Q: Which Potency does the source give for COc1cc(NC(=O)C23CCCC=C2N(c2ccccc2)C(=O)CC3)cc(OC)c1 (stereo not drawn) here?
A: The Potency was inconclusive: 89.1 µM [inhibitor, single point].

Q: Which Potency does the source give for Cc1ccc(CN2C(=O)COC[C@H]2C(=O)Nc2cccc(C(C)C)c2)cc1 here?
A: Its Potency is inconclusive: 89.1 µM [inhibitor, single point].

Q: Which Potency does the source give for COc1ccccc1-c1ccc(CN2CCCCC2C(=O)NCc2ccccc2)cc1 (stereo not drawn) here?
A: The Potency was active: 31.6 µM.

Q: Which Potency does the source give for CCN(CC)C1CCOC2(CCN(C(=O)Nc3cccc(C)c3)CC2)C1 (stereo not drawn) here?
A: Its Potency is “inactive”.

Q: Which Potency does the source give for Cc1ccc(NC(=O)N2CCCC2c2nncn2C2CCCC2)c(C)c1 (stereo not drawn) here?
A: Its Potency is “inactive”.

Q: For CCOC(=O)C1=C(C)N=C2SC=C(CC(=O)N3CCCC3)N2C1c1cc(C)ccc1C (stereo not drawn), which Potency is on record?
A: The Potency was inconclusive: 89.1 µM [inhibitor, single point].

Q: For O=C(NCCc1ccncc1)c1coc(COc2ccc(F)cc2Cl)n1, which Potency is on record?
A: Its Potency is active: 31.6 µM.

Q: With O=C(c1ccc2nnc(-c3ccc(Cl)cc3)n2c1)N1CCN(Cc2ccccc2)CC1 as the molecule, how does the Potency read?
A: Its Potency is active: 25.1 µM.

Q: Which Potency does the source give for Cn1cc(CN2C[C@H](C(=O)Nc3cccc(F)c3)C[C@H]2c2cccc(C(F)(F)F)c2)cn1 here?
A: The Potency was inconclusive: 56.2 µM [inhibitor, partial curve, poor fit].

Q: For O=C1CC2(CCN(C(=O)c3ccc4c(c3)OCO4)CC2)CN1CC1CCCO1 (stereo not drawn), which Potency is on record?
A: Its Potency is “inactive”.

Q: For COc1ccccc1Nc1ccnc(N2CCCC2C(=O)NC2CC2)n1 (stereo not drawn), which Potency is on record?
A: The Potency was “inactive”.

Q: Which Potency does the source give for O=C(NCc1cccc(Cl)c1)c1ccc2nnc(-c3cc(C(F)(F)F)cc(C(F)(F)F)c3)n2c1 here?
A: Its Potency is active: 14.1 µM.

Q: For O=C(COc1ccc(F)cc1)N1CCN(c2cc(-c3ccccc3)[nH]n2)CC1, which Potency is on record?
A: Its Potency is inconclusive: 79.4 µM [inhibitor, single point].

Q: For COc1cccc(-c2ccc(CN3CCCC(NC(=O)NC(C)C)C3)cc2)c1 (stereo not drawn), which Potency is on record?
A: Its Potency is inconclusive: 39.8 µM [inhibitor, full curve, poor fit].

Q: For FC(F)(F)Oc1ccc(Nc2cnc3ccc(N4CCOCC4)nn23)cc1, which Potency is on record?
A: Its Potency is active: 50.1 µM.

Q: For CNc1ncccc1C(=O)N1CCCC2(C=Cc3ccccc3O2)CC1 (stereo not drawn), which Potency is on record?
A: Its Potency is inconclusive: 50.1 µM [inhibitor, partial curve, poor fit].

Q: For CN(C)c1ccc(CN2CCC3(C2)C(=O)N(Cc2ccccc2)c2ccccc23)cc1 (stereo not drawn), which Potency is on record?
A: The Potency was active: 35.5 µM.

Q: Which Potency does the source give for Cc1noc(C)c1S(=O)(=O)N1CCC(c2noc(-c3ccccc3)n2)C1 (stereo not drawn) here?
A: The Potency was inconclusive: 44.7 µM [inhibitor, partial curve, poor fit].

Q: Which Potency does the source give for Cc1ccc(NC(=O)c2cc3n(n2)CC(c2ccc4c(c2)OCO4)OC3)cc1F (stereo not drawn) here?
A: Its Potency is active: 39.8 µM.

Q: For Cc1nn(-c2ccccc2)c2c1C(C1CC1)N(C1CCCN([S+](=O)([O-])c3c(C)noc3C)C1)C2=O (stereo not drawn), which Potency is on record?
A: The Potency was “inactive”.

Q: With COc1ccc(C(CC(=O)N2CCN(C)CC2)c2ccccc2)cc1 (stereo not drawn) as the molecule, how does the Potency read?
A: Its Potency is “inactive”.

Q: With COc1ccc(Cl)cc1C(=O)N1CCN(C(=O)c2nnn3c2COC(c2ccccc2)C3)CC1 (stereo not drawn) as the molecule, how does the Potency read?
A: Its Potency is inconclusive: 50.1 µM [inhibitor, partial curve, poor fit].

Q: Which Potency does the source give for O=C(NC1CCCN(CCn2nc3n(c2=O)CCCC3)C1)c1ccc(Cl)cc1 (stereo not drawn) here?
A: Its Potency is inconclusive: 100 µM [inhibitor, single point].
